In paper PMC4336329 (PLoS ONE, 2015):
The whole screen tested about 310,000 compounds, of which about 2,200 (0.71%) showed an effect of 50% or more. Effects have a minus sign here. This is one part of the list.

What follows are compounds tested against human ether-à-go-go-related gene (hERG) potassium channel (human, UniProt Q12809) (assay: primary screen, population patch clamp on CHO cells stably expressing hERG).
Chain of human ether-à-go-go-related gene (hERG) potassium channel (Q12809 whole entry, looked up): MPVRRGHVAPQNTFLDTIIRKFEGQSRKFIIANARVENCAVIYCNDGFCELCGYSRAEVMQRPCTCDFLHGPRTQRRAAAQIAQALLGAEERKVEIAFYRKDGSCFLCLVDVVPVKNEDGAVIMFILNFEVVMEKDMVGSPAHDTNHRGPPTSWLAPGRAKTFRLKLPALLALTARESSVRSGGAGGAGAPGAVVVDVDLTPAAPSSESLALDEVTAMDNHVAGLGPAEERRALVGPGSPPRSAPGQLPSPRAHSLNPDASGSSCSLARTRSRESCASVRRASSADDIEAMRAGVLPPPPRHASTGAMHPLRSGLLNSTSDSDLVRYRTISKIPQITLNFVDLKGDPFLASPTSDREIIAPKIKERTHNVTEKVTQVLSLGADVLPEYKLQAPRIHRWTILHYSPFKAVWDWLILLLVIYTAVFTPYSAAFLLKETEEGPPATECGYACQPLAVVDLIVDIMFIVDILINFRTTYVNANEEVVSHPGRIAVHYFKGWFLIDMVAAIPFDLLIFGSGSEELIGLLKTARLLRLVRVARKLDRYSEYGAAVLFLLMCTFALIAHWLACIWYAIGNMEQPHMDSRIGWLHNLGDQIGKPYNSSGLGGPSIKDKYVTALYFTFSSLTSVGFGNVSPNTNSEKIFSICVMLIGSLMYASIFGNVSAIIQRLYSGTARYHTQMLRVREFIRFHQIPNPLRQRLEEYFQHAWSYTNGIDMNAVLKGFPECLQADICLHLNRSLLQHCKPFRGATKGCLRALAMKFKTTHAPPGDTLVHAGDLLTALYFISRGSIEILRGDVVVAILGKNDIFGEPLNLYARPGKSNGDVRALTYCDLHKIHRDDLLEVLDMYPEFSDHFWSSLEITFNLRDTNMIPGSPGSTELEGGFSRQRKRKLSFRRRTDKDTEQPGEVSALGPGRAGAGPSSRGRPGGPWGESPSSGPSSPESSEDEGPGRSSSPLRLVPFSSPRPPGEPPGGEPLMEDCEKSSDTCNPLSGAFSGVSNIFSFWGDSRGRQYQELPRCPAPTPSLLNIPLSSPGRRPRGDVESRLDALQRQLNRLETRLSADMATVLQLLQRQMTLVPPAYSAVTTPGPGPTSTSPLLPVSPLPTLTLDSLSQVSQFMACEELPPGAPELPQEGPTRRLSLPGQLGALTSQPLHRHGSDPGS

First: CC(=O)c1cccc(NC(=O)c2csc3c2CCCCC3)c1
Second: COc1cc(NC(=O)c2cccc(C)c2)c(OC)cc1NC(=O)CN1CCCCC1
The “hERG current change (%, negative = inhibition) at 1uM” value of the first is higher: 6.78% for the first, 5.58% for the second.

Going from Nc1c(N(CCC2=CCCCC2)C(=O)Cc2ccccc2F)c(=O)[nH]c(=O)n1Cc1ccccc1 to Cc1ccc(S(=O)(=O)N2CC=C(C(=O)NCc3ccccc3)CC2)cc1, the “hERG current change (%, negative = inhibition) at 1uM” value falls from 9.71% to -4.37%.

Going from CCn1nc(C(=O)NNC(=O)COc2ccccc2C)c2ccccc2c1=O to Cc1ccc(CNC(=O)CCCOc2cc(=O)n(C)c3ccccc23)o1, the “hERG current change (%, negative = inhibition) at 1uM” value rises from -3.29% to 1.41%.

First: NC(=O)C1CCN(C(=O)c2cc(S(=O)(=O)N3CCOCC3)c(Cl)cc2Cl)CC1
Second: CC1CCCCC1NC(=O)Cc1ccc(S(=O)(=O)N2CCOCC2)s1 (centres unmarked)
The “hERG current change (%, negative = inhibition) at 1uM” value of the first is higher: 14% for the first, -8.81% for the second.

Compared with O=C(NCCO)c1ccccc1O, COC(=O)c1ccsc1NC(=O)CCS(=O)(=O)c1ccccc1 is lower in “hERG current change (%, negative = inhibition) at 1uM” value: 15.7% for the first, 14.5% for the second.

Going from O=C(NCc1ccccn1)[C@H]1C[C@@H]1[C@H](NP(=O)(c1ccccc1)c1ccccc1)c1ccccc1 to Cc1cccc(NC(=O)c2ccccc2NC(=O)c2ccccc2)n1, the “hERG current change (%, negative = inhibition) at 1uM” value rises from 7.04% to 9.95%.

First: CC(=O)c1ccc(N2CCN(Cc3nc4ccccc4[nH]3)CC2)cc1
Second: COc1ccc(N2CCN(C(=O)c3ccc(NS(=O)(=O)c4ccccc4)cc3)CC2)cc1
The “hERG current change (%, negative = inhibition) at 1uM” value of the first is higher: -2.21% for the first, -7.23% for the second.

First: O=C(/C=C/c1ccccc1)NC(=S)Nc1ccccc1
Second: CC(=O)Nc1ccc(S(=O)(=O)Nc2nccc(/C=C/c3ccccc3F)n2)cc1
The “hERG current change (%, negative = inhibition) at 1uM” value of the first is higher: 14.8% for the first, 10.8% for the second.

Going from COc1ccc(/C=C(/C#N)C(=O)Nc2ccccc2C)cc1C(=O)O to CCN(CCNCC(O)COc1ccccc1C(C)C)c1cccc(C)c1.O=C(O)C(=O)O (centres unmarked), the “hERG current change (%, negative = inhibition) at 1uM” value falls from 16% to 5.11%.

Compared with O=C(COc1ccc2ccccc2c1Br)N1CCCC1, CCc1ccccc1NC(=O)C1CCN(C(=O)c2cccs2)CC1 is lower in “hERG current change (%, negative = inhibition) at 1uM” value: 9.68% for the first, 3.75% for the second.

Going from COc1ccc(NC(=O)Cn2nnc(C(=O)Nc3ccc(F)c(Cl)c3)c2N)cc1 to Cl.O=C(CSc1nc2cc(Cl)ccc2o1)Nc1ccc(N2CCOCC2)cc1, the “hERG current change (%, negative = inhibition) at 1uM” value falls from 14.9% to -2.94%.

First: CCN(CC)S(=O)(=O)c1ccc(NC(=O)c2ccc(Cl)nc2)cc1
Second: CCOC(=O)N1CCN(C(=O)c2ccc(N(C)S(=O)(=O)c3ccc(C)cc3)cc2)CC1
The “hERG current change (%, negative = inhibition) at 1uM” value of the first is higher: 3.43% for the first, 0.198% for the second.

Going from COc1ccc(C2NC(c3ccc(OC)c(OC)c3OC)C(C)C(=O)C2C)c(OC)c1OC.Cl (centres unmarked) to COc1cc(C2CC(=O)c3cnc(NC(=O)COc4ccccc4)nc3C2)cc(OC)c1OC (centres unmarked), the “hERG current change (%, negative = inhibition) at 1uM” value falls from 17% to 7.43%.

First: COc1ccc(CN2CC(C(=O)NCCc3ccc(Cl)cc3)CC2=O)cc1 (centres unmarked)
Second: Cc1ccc(CCNC(=O)C2CCN(C(=O)N(C)C)CC2)cc1
The “hERG current change (%, negative = inhibition) at 1uM” value of the first is lower: 0.596% for the first, 13% for the second.

Compared with COc1ccc(OC)c(Nc2nc(NCc3ccco3)c3ccccc3n2)c1.Cl, COc1ccc(N2CCC(CNC(=S)Nc3c(C)cc(C)cc3C)C2)cc1 (centres unmarked) is lower in “hERG current change (%, negative = inhibition) at 1uM” value: 9.92% for the first, 3.98% for the second.

First: COC(=O)C1=C(C)NC(=O)C1(NC(=O)c1ccncc1)C(F)(F)F (centres unmarked)
Second: COC(=O)[C@H](C)NC(=O)Nc1ccc(OC(F)(F)F)cc1
The “hERG current change (%, negative = inhibition) at 1uM” value of the first is lower: 0.652% for the first, 17.9% for the second.

First: Cc1ccc2nc(SCC(=O)Nc3ccc4c(c3)OCCO4)nc(=O)n2c1
Second: N#CCCN(C(=O)CSc1ccc2c(c1)OCCO2)c1ccc(F)cc1
The “hERG current change (%, negative = inhibition) at 1uM” value of the first is lower: 5.61% for the first, 5.84% for the second.

Going from CN1CCCN(C(=O)C2CCC(C(=O)N3CCCN(C)CC3)CC2)CC1.Cl (centres unmarked) to CCCC(=O)c1ccc(N2CCN(C(=O)c3ccc(Br)cc3)CC2)c(F)c1, the “hERG current change (%, negative = inhibition) at 1uM” value rises from 5.69% to 9.18%.

First: CSc1n[nH]c(-c2ccc(C(F)(F)F)cc2)n1
Second: CCN(CCn1cccn1)C(=O)c1cc(COc2ccc(F)c(F)c2)on1
The “hERG current change (%, negative = inhibition) at 1uM” value of the first is higher: 15.1% for the first, -27.1% for the second.

Going from COc1ccc(CC(=O)NC2CC2)cc1OC to Cn1c(=O)c2ccccc2n(CC(=O)NC2CCCCC2)c1=O, the “hERG current change (%, negative = inhibition) at 1uM” value falls from 15.6% to 13.3%.

First: C1CCC(CNc2c3c(nc4nnnn24)CCCC3)CC1
Second: COc1cccc(NC(=O)C2CCN(c3ncccn3)CC2)c1
The “hERG current change (%, negative = inhibition) at 1uM” value of the first is higher: 9.98% for the first, -1.64% for the second.

Going from CC(=O)Nc1ccc(S(=O)(=O)Nc2ccc(S(=O)(=O)N3CCCC3)cc2)cc1 to CC(=O)Nc1ccc(SCC(=O)N(CCC#N)c2cc(C)cc(C)c2)cc1, the “hERG current change (%, negative = inhibition) at 1uM” value falls from 4.58% to 4.06%.
